We go through 15 molecules from US20060121580A1.

B1: SC03-030 (scFv)
scFv: AMAEVQVVQSGGGLVQPGGSLKLSCAASGFTFSSYAMHWVRQAPGKGLEYVSGISSNGGSTYYANSVKGRFTISRDNSKNTLYLQMGSLRAEDMAVYYCARTTNRAFDIWGQGTMVTVSSGTGGSGGTGSGTGGS[about 100 residues left out here]FGQGTKVEIKRAA
B2: bivalent scFv pyBi03-001C02 (scFv)
scFv: SMAEVQLVESGGGLVKPGGSLRLSCAASGFTFSGYSMNWVRQAPGKGLEWVSSISGGSTYYADSRKGRFTISRDNSKNTLYLQMNNLRAEDTAVYYCARHRFRHVFDYWGQGTLVTVLEGTGGSGGTGSGTGTSELTQSPSSLSASVGDRVTIT[about 80 residues left out here]FGQGTKVEIKRAAA
B3: bivalent scFv pyBi03-008C02 (scFv)
scFv: SMAEVQLVESGGGVVQPGRSLRLSCAASGFTFSSYPMNWVRQAPGKGLEWVSAISGSGGSTYYADSVKGRFTISRDNSKNTLYLQMNSLRAEDTAVYYCARRVRPRRFDYWGQGTLVTVLEGTGGSGGTGSGTGTSELTQSPSSLSASVGDRVTIT[about 80 residues left out here]FGQGTKVEIKRAAA
B4: bivalent scFv pyBi03-003C02 (scFv)
scFv: SMAEVQLVESGGGLVQPGGSLRLSCAASGFTFSSYPMNWVRQAPGKGLEWVSAISGSGGSTYYADSVKGRFTISRDNSKNTLYLQMNSLRAEDTAVYYCARRSYFRRFDYWGQGTLVTVLEGTGGSGGTGSGTGTSELTQSPSSLSASVGDRVTIT[about 80 residues left out here]FGQGTKVEIKRAAA
B5: bivalent scFv pyBi03-007C02 (scFv)
scFv: SMAEVQLVESGGGLVQPRGSLRLSCAASGFTFSDYRMNWVRQAPGKGLERVAVISYDGSNKYYADSVKGRFTISRDNSKNTLYLQMNSLRAEDTAVYYCARGYWTSLTGFDYWGQGTLVTVLEGTGGSGGTGSGTGTSELTQSPSSLSASVGDRVTIT[about 80 residues left out here]FGQGTKVEIKRAAA
B6: bivalent scFv pyBi03-002C02 (scFv)
scFv: SMAEVQLVESGGGLVKPGGSLRLSCAASGFTFSGYSMSWVRQAPGKGLEWVGRTRNKANSYTTEYAASVKGRFTISRDDSKNSLYLQMNSLKTEDTAVYYCARYYSRSLKAFDYWGQGTLVTVLEGTGGSGGTGSGTGTSELTQSPSSLSASVGDRVTIT[about 80 residues left out here]FGQGTKVEIKRAAA
B7: bivalent scFv pyBi03-009C02 (scFv)
scFv: SMAEVQLVESGGGVVQPGRSLRLSCAASGFTFSDYPMNWVRQAPGKGLEWVSSISGSGGSTYYADSVKGRFTISRDNSKNTLYLQMNSLRAEDTAVYYCAKGLFMVTTYAFDYWGQGTLVTVLEGTGGSGGTGSGTGTSELTQSPSSLSASVGDRVTIT[about 80 residues left out here]FGQGTKVEIKRAAA
B8: bivalent scFv pyBi03-010C02 (scFv)
scFv: SMAEVQLVESGGGVVQPGRSLRLSCATSGFTFSGYTMHWVRQAPGKGLEWVSSISGGSTYYADSRKGRFTISRDNSKNTLYLQMNNLRAEDTAVYYCAKGGGLPYLSFDYWGQGTLVTVLEGTGGSGGTGSGTGTSELTQSPSSLSASVGDRVTIT[about 80 residues left out here]FGQGTKVEIKRAAA
B9: bivalent scFv pyBi03-005C02 (scFv)
scFv: SMAEVQLVESGGGLIQPGGSLRLSCAASGFTFSGYTMSWVRQAPGQGLEWVSSISGGSTYYADSRKGRFTISRDNSKNTLYLQMNNLRAEDTAVYYCAKGGGRPYNPFDYWGQGTLVTVLEGTGGSGGTGSGTGTSELTQSPSSLSASVGDRVTIT[about 80 residues left out here]FGQGTKVEIKRAAA
B10: bivalent scFv pyBi03-013C02 (scFv)
scFv: AMAEVQLVESGGGLVQPGGSLRLSCAASGFTFSDHYMDWVRQAPGKGLEWVGRTRNKANSYTTEYAASVKGRFTISRDDSKNSLYLQMNSLKTEDTAVYYCAKGLTPLYFDYWGQGTLVTVSSGGGGSGGGGSGGGGSEIELTQSPSSLSASVGDRVTIT[about 80 residues left out here]FGQGTKVEIKRAAA
B11: bivalent scFv pyBi03-014C02 (scFv)
scFv: AMAEVQLVESGGGLVQPGGSLRLSCAASGFTFSDHYMDWVRQAPGKGLEWVGRTRNKANSYTTEYAASVKGRFTISRDDSKNSLYLQMNSLKTEDTAVYYCARGISPFYFDYWGQGTLVTVSSGGGGSGGGGSGGGGSEIELTQSPSSLSASVGDRVTIT[about 80 residues left out here]FGQGTKVEIKRAAA
B12: SC03-052 (scFv)
scFv: AMAEVQLVQSGTEVKKPGESLKVSCKGSGYGFITYWIGWVRQMPGKGLEWMGIIYPGDSETRYSPSFQGQVTISADKSINTTYLQWSSLKASDTAIYYCAGGSGISTPMDVWGQGTTVTVSSGTGGSGGTGSGTGGS[about 100 residues left out here]FGQGTKVEIKRAA
B13: SC03-058 (scFv)
scFv: AMAEVQLVQSGGGLVQPGGSLKLSCAASGFTFSSYAMHWVRQAPGKGLEYVSGISSNGGSTYYANSVKGRFTISRDNSKNTLYLQMGSLRAEDMAVYYCARTTNRAFDIWGQGTMVTVSSGTGGSGGTGSGTGGS[about 100 residues left out here]FGQGTKVEIKRAA
B14: SC03-029 (scFv)
scFv: AMAEVQLVQSGGGLVQPGGSLRLSCAASGFTFSSYAMHWVRQAPGKGLEYVSGISSNGGSTYYANSVKGRFTISRDNSKNTLYLQMGSLRAEDMAVYYCARTTNRAFDIWGQGTMVTVSSGTGGSGGTGSGTGGS[about 100 residues left out here]FGAGTKLEIKRAA
B15: single-chain phage antibody SC03-014 (scFv)
scFv: AMAEVQLVESGGGLVQPGGSLRLSCAASGFTFSDHYMDWVRQAPGKGLEWVGRTRNKANSYTTEYAASVKGRFTISRDDSKNSLYLQMNSLKTEDTAVYYCARGISPFYFDYWGQGTLVTVSSGGGGSGGGGSGGGGSEIELTQSPSSLSASVGDRVTIT[about 80 residues left out here]FGQGTKVEIKRAAA

The target in the first test is SARS-CoV preparation (Frankfurt 1 strain). The experiment in a line: phage ELISA on coated SARS-CoV preparation, plate 3 (no phage antibody 0.054).
B1 showed an OD492 nm of 1.15 OD492 nm.

A further test has as its target SARS-CoV strain Frankfurt 1 (infectious virus). Put plainly: cell-based or functional assay.
B2 came in with a Neutralization titer for Frankfurt 1 strain (dilution factor) below 20.

Regarding B3, the Neutralization titer for Frankfurt 1 strain (dilution factor) was below 20.

For the molecule B4, the Neutralization titer for Frankfurt 1 strain (dilution factor) is below 20.

B5 showed a Neutralization titer for Frankfurt 1 strain (dilution factor) below 20.

B6 showed a Neutralization titer for Frankfurt 1 strain (dilution factor) below 20.

As for B7, the Neutralization titer for Frankfurt 1 strain (dilution factor) was below 20.

With B8, the Neutralization titer for Frankfurt 1 strain (dilution factor) was below 20.

In turn, B9 had a Neutralization titer for Frankfurt 1 strain (dilution factor) below 20.

In turn, B10 returned a Neutralization titer for Frankfurt 1 strain (dilution factor) of 160.

B11 came in with a Neutralization titer for Frankfurt 1 strain (dilution factor) of 80.

The target in the next test is SARS-CoV strain Frankfurt 2 (infectious virus). The experiment in a line: cell-based or functional assay.
The molecule B2 gave a Neutralization titer for Frankfurt 2 strain (dilution factor) below 20.

Take B3: the Neutralization titer for Frankfurt 2 strain (dilution factor) was below 20.

B4 registered a Neutralization titer for Frankfurt 2 strain (dilution factor) below 20.

Molecule B5 showed a Neutralization titer for Frankfurt 2 strain (dilution factor) below 20.

B6 returned a Neutralization titer for Frankfurt 2 strain (dilution factor) below 20.

In the case of B7, the Neutralization titer for Frankfurt 2 strain (dilution factor) was below 20.

B8: the Neutralization titer for Frankfurt 2 strain (dilution factor) was below 20.

Consider B9, for which the Neutralization titer for Frankfurt 2 strain (dilution factor) was below 20.

For B10, the Neutralization titer for Frankfurt 2 strain (dilution factor) turned out to be 80.

B11: the Neutralization titer for Frankfurt 2 strain (dilution factor) came to 80.

For the next test, the target named is SARS-CoV preparation (Frankfurt 1 strain). The experiment in a line: phage ELISA on coated SARS-CoV preparation, plate 4 (no phage antibody 0.051).
With B12, the OD492 nm came out at 0.355 OD492 nm.

B13 had an OD492 nm of 0.355 OD492 nm.

As to B14, the OD492 nm amounted to 0.629 OD492 nm.

The next test has as its target fetal bovine serum (FBS), 10% preparation.
Assay: not given
In turn, B15 registered an OD492 nm of 0.089 OD492 nm.
